The chains are these.
B1: TEV protease; numbered along this chain (parent)
chain: MGESLFKGPRDYNPISSSICHLTNESDGHTTSLYGIGFGPFIITNKHLFRRNNGTLVVQSLHGVFKVKDTTTLQQHLVDGRDMIIIRMPKDFPPFPQKLKFREPQREERICLVTTNFQTKSMSSMVSDTSCTFPSGDGIFWKHWIQTKDGQCGSPLVSTRDGFIVGIHSASNFTNTNNYFTSVPKNFMELLTNQEAQQWVSGWRLNADSVLWGGHKVFMVKPEEPFQPVKEATQL

The assay covers variants of B1. Nature of the assay: raw area under fraction-flipped curve 0-4 h after induction (AUC4h, not background-subtracted), DNA-recorder readout of cleavage of the substrate (dimensionless); higher = more cleavage of the substrate by the protease variant. The following applies: temperature: 34 °C; time window: 0-4 h after rhamnose induction. How it is done: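 In vivo DNA recorder in E. coli TOP10(DE3) ΔrhaA at 34 °C. Each TEVp single-site mutant (parent TEVp 0) is paired with a single-site variant of the 7-mer TEVs (canonical ENLYFQ|S). The substrate sits between flexible linkers in a Bxb1-sfGFP-TEVs-SsrA fusion, so cleavage stabilises Bxb1 and speeds flipping of a recombination array, read by NGS. The value is the raw area under the fraction-flipped curve over 0-4 h after rhamnose induction (AUC4h), with ≥20 reads per time point. It is not background-subtracted; inactive controls average about 0.047.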

Some of the results follow. The full chains were built here from the parent and the listed change. Values near 0.05 are background.
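Further: Bxb1 expression induced with 0.2% (w/v) L-rhamnose at OD600 near 0.5, cultures sampled hourly, flipped fraction per protease–substrate barcode pair counted by paired-end Illumina sequencing.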

For MGESLFKGPRDYNPISSSICHLTNESIGHTTSLYGIGFGPFIITNKHLFRRNNGTLVVQSLHGVFKVKDTTTLQQHLVDGRDMIIIRMPKDFPPFPQKLKFREPQREERICLVTTNFQTKSMSSMVSDTSCTFPSGDGIFWKHWIQTKDGQCGSPLVSTRDGFIVGIHSASNFTNTNNYFTSVPKNFMELLTNQEAQQWVSGWRLNADSVLWGGHKVFMVKPEEPFQPVKEATQL [D27I], the “area with substrate EALYFQS” value stood at 0.107, the “area with substrate EELYFQS” value turned out to be 0.0948, the “area with substrate EGLYFQS” value came out at 0.0633 and the “area with substrate EHLYFQS” value came out at 0.0891. Further, the “area with substrate EILYFQS” value amounted to 0.0467, the “area with substrate EKLYFQS” value is 0.0798, the “area with substrate EMLYFQS” value was found to be 0.0858 and the “area with substrate EPLYFQS” value was 0.0725. Also, the “area with substrate ERLYFQS” value came out at 0.101, the “area with substrate ESLYFQS” value was found to be 0.0763, the “area with substrate ETLYFQS” value came out at 0.103 and the “area with substrate EVLYFQS” value came to 0.0915. In addition, the “area with substrate EWLYFQS” value is 0.0627 and the “area with substrate EYLYFQS” value came out at 0.0713.

Consider MGESLFKGPRDYNPISSSICHLTNESDGHTTSLDGIGFGPFIITNKHLFRRNNGTLVVQSLHGVFKVKDTTTLQQHLVDGRDMIIIRMPKDFPPFPQKLKFREPQREERICLVTTNFQTKSMSSMVSDTSCTFPSGDGIFWKHWIQTKDGQCGSPLVSTRDGFIVGIHSASNFTNTNNYFTSVPKNFMELLTNQEAQQWVSGWRLNADSVLWGGHKVFMVKPEEPFQPVKEATQL [Y34D], for which the “area with substrate EALYFQS” value was determined as 0.0687, the “area with substrate ECLYFQS” value was determined as 0.0426, the “area with substrate EDLYFQS” value was found to be 0.0998 and the “area with substrate EFLYFQS” value was found to be 0.0712. Also, the “area with substrate EGLYFQS” value is 0.0629, the “area with substrate EHLYFQS” value amounted to 0.0638, the “area with substrate EKLYFQS” value is 0.0476 and the “area with substrate EMLYFQS” value worked out at 0.0683. Also, the “area with substrate EQLYFQS” value is 0.0744, the “area with substrate ESLYFQS” value amounted to 0.0728, the “area with substrate ETLYFQS” value came out at 0.0718 and the “area with substrate EWLYFQS” value came to 0.0459.

For the variant MGESLFKGPRDYNPISSSIIHLTNESDGHTTSLYGIGFGPFIITNKHLFRRNNGTLVVQSLHGVFKVKDTTTLQQHLVDGRDMIIIRMPKDFPPFPQKLKFREPQREERICLVTTNFQTKSMSSMVSDTSCTFPSGDGIFWKHWIQTKDGQCGSPLVSTRDGFIVGIHSASNFTNTNNYFTSVPKNFMELLTNQEAQQWVSGWRLNADSVLWGGHKVFMVKPEEPFQPVKEATQL [C20I], the “area with substrate EALYFQS” value was determined as 0.105, the “area with substrate ECLYFQS” value is 0.0935, the “area with substrate EDLYFQS” value came out at 0.107 and the “area with substrate EELYFQS” value is 0.104. Besides, the “area with substrate EFLYFQS” value was determined as 0.104, the “area with substrate EHLYFQS” value amounted to 0.137, the “area with substrate EILYFQS” value is 0.0938 and the “area with substrate EKLYFQS” value was determined as 0.116. Further, the “area with substrate ELLYFQS” value was 0.0859, the “area with substrate EMLYFQS” value was found to be 0.112, the “area with substrate EPLYFQS” value was determined as 0.126 and the “area with substrate EQLYFQS” value stood at 0.126. For the same variant, the “area with substrate ERLYFQS” value was 0.109, the “area with substrate ESLYFQS” value worked out at 0.109 and the “area with substrate EVLYFQS” value stood at 0.102.

MGESLFKGPRDYNPISSSICHLTNESDGHTMSLYGIGFGPFIITNKHLFRRNNGTLVVQSLHGVFKVKDTTTLQQHLVDGRDMIIIRMPKDFPPFPQKLKFREPQREERICLVTTNFQTKSMSSMVSDTSCTFPSGDGIFWKHWIQTKDGQCGSPLVSTRDGFIVGIHSASNFTNTNNYFTSVPKNFMELLTNQEAQQWVSGWRLNADSVLWGGHKVFMVKPEEPFQPVKEATQL [T31M]: the “area with substrate EALYFQS” value turned out to be 0.105, the “area with substrate ECLYFQS” value worked out at 0.0422, the “area with substrate EFLYFQS” value is 0.103 and the “area with substrate EGLYFQS” value stood at 0.0643. In addition, the “area with substrate EKLYFQS” value stood at 0.105, the “area with substrate ELLYFQS” value amounted to 0.0875, the “area with substrate EPLYFQS” value is 0.105 and the “area with substrate ERLYFQS” value was 0.0839. Besides, the “area with substrate ESLYFQS” value stood at 0.09, the “area with substrate ETLYFQS” value was 0.0758, the “area with substrate EWLYFQS” value came out at 0.099 and the “area with substrate EYLYFQS” value worked out at 0.105.

For the variant MGESLFKGPRDYNPISSSICHLTNESDGHTYSLYGIGFGPFIITNKHLFRRNNGTLVVQSLHGVFKVKDTTTLQQHLVDGRDMIIIRMPKDFPPFPQKLKFREPQREERICLVTTNFQTKSMSSMVSDTSCTFPSGDGIFWKHWIQTKDGQCGSPLVSTRDGFIVGIHSASNFTNTNNYFTSVPKNFMELLTNQEAQQWVSGWRLNADSVLWGGHKVFMVKPEEPFQPVKEATQL [T31Y], the “area with substrate EALYFQS” value came out at 0.138, the “area with substrate EFLYFQS” value is 0.0599, the “area with substrate EHLYFQS” value worked out at 0.116 and the “area with substrate ELLYFQS” value is 0.0905. The “area with substrate EQLYFQS” value was 0.124, the “area with substrate ERLYFQS” value is 0.117, the “area with substrate ESLYFQS” value came to 0.1 and the “area with substrate ETLYFQS” value came to 0.0835. Moreover, the “area with substrate EVLYFQS” value stood at 0.0931.

For the variant MGESLLKGPRDYNPISSSICHLTNESDGHTTSLYGIGFGPFIITNKHLFRRNNGTLVVQSLHGVFKVKDTTTLQQHLVDGRDMIIIRMPKDFPPFPQKLKFREPQREERICLVTTNFQTKSMSSMVSDTSCTFPSGDGIFWKHWIQTKDGQCGSPLVSTRDGFIVGIHSASNFTNTNNYFTSVPKNFMELLTNQEAQQWVSGWRLNADSVLWGGHKVFMVKPEEPFQPVKEATQL [F6L], the “area with substrate EALYFQS” value amounted to 0.128, the “area with substrate ECLYFQS” value worked out at 0.0566, the “area with substrate EGLYFQS” value is 0.0417 and the “area with substrate EILYFQS” value is 0.0569. The “area with substrate EMLYFQS” value was 0.0633, the “area with substrate EPLYFQS” value was 0.0757, the “area with substrate EQLYFQS” value stood at 0.0927 and the “area with substrate ESLYFQS” value stood at 0.0618. The “area with substrate ETLYFQS” value came out at 0.0173 and the “area with substrate EVLYFQS” value was 0.0799.

MGESLFKGPRDYNPISSSICHLTNESDGHTTSTYGIGFGPFIITNKHLFRRNNGTLVVQSLHGVFKVKDTTTLQQHLVDGRDMIIIRMPKDFPPFPQKLKFREPQREERICLVTTNFQTKSMSSMVSDTSCTFPSGDGIFWKHWIQTKDGQCGSPLVSTRDGFIVGIHSASNFTNTNNYFTSVPKNFMELLTNQEAQQWVSGWRLNADSVLWGGHKVFMVKPEEPFQPVKEATQL [L33T]: the “area with substrate EALYFQS” value turned out to be 0.149, the “area with substrate ECLYFQS” value was 0.12, the “area with substrate EELYFQS” value was found to be 0.117 and the “area with substrate EHLYFQS” value is 0.131. Moreover, the “area with substrate EILYFQS” value came out at 0.129, the “area with substrate EKLYFQS” value came to 0.128, the “area with substrate EQLYFQS” value turned out to be 0.174 and the “area with substrate ERLYFQS” value came to 0.145. In addition, the “area with substrate ESLYFQS” value amounted to 0.11.

Turning to MGESLFKGPRDYNPISSSICHLTNESDGHTTSLYFIGFGPFIITNKHLFRRNNGTLVVQSLHGVFKVKDTTTLQQHLVDGRDMIIIRMPKDFPPFPQKLKFREPQREERICLVTTNFQTKSMSSMVSDTSCTFPSGDGIFWKHWIQTKDGQCGSPLVSTRDGFIVGIHSASNFTNTNNYFTSVPKNFMELLTNQEAQQWVSGWRLNADSVLWGGHKVFMVKPEEPFQPVKEATQL [G35F], the “area with substrate EALYFQS” value came out at 0.0465, the “area with substrate EDLYFQS” value was 0.0437, the “area with substrate EELYFQS” value was 0.0428 and the “area with substrate EHLYFQS” value came out at 0.0458. The “area with substrate EILYFQS” value came out at 0.0084, the “area with substrate EKLYFQS” value worked out at 0.0432, the “area with substrate ERLYFQS” value is 0.0504 and the “area with substrate ESLYFQS” value worked out at 0.0269.

Turning to MGESLFKGPRDYNPISSDICHLTNESDGHTTSLYGIGFGPFIITNKHLFRRNNGTLVVQSLHGVFKVKDTTTLQQHLVDGRDMIIIRMPKDFPPFPQKLKFREPQREERICLVTTNFQTKSMSSMVSDTSCTFPSGDGIFWKHWIQTKDGQCGSPLVSTRDGFIVGIHSASNFTNTNNYFTSVPKNFMELLTNQEAQQWVSGWRLNADSVLWGGHKVFMVKPEEPFQPVKEATQL [S18D], the “area with substrate EALYFQS” value was determined as 0.102, the “area with substrate ECLYFQS” value stood at 0.0871, the “area with substrate EELYFQS” value came to 0.0852 and the “area with substrate EHLYFQS” value is 0.101. Also, the “area with substrate EILYFQS” value stood at 0.0852, the “area with substrate EKLYFQS” value amounted to 0.101, the “area with substrate ELLYFQS” value amounted to 0.071 and the “area with substrate EPLYFQS” value worked out at 0.13. Further, the “area with substrate EQLYFQS” value worked out at 0.0842, the “area with substrate ESLYFQS” value stood at 0.0947, the “area with substrate EVLYFQS” value stood at 0.0783 and the “area with substrate EYLYFQS” value was 0.0974.

Values taken from the supplement of paper PMC12217912.
